Our source for the Virulence hla promoter values is patent publication US20190307729A1, “ANTIMICROBIAL COMPOUNDS AND METHODS FOR USE THEREOF” (VERSITECH LIMITED, priority 2016, published 2019).

In this assay the test system is hla promoter. The assay can be described thus: Paper disc diffusion and lux assay (hla promoter lux reporter). The class given is cell-based, S. aureus. The conditions noted are these: induction or repression on hla promoter; DMSO control printed as +++. As for the experimental part: A single colony of bioluminescent S. aureus carrying the hla-promoter lux reporting system was resuspended in 200 μl of sterile water, diluted 1000-fold into 0.7% (w/v) BHI agar and overlaid onto BHI agar plates. 10 μl of the 50 mM analogues compounds dissolved in DMSO were impregnated to paper disc and placed on the lawn of bacteria. The plates were incubated overnight at 37° C. The luminescence was detected with Xenogen IVIS 100 in vivo imaging system (Xenogen, Alameda, Calif.).
Background: Agar diffusion results depend on both activity and mobility in agar.
In the case of `O=C(O)CN1C(=O)/C(=C/c2ccccc2)SC1=S` [Compound 1], the Virulence hla promoter entry is reported as “−”.
As to `COc1cc(/C=C2\SC(=S)N(CC(=O)O)C2=O)ccc1OCc1ccc(Cl)cc1` [Compound 6], the Virulence hla promoter result was “−”.
In the case of `COc1ccc(/C=C2\SC(=S)N(CC(=O)O)C2=O)cc1OCc1ccc(Cl)cc1` [Compound 15], the Virulence hla promoter entry was “+”.
The same measure for `O=C(O)CN1C(=O)/C(=C/c2cccc(OCc3ccc(Cl)cc3Cl)c2)SC1=S` [Compound 17]: “−”; for `COc1ccc(/C=C2\SC(=S)N(CC(=O)O)C2=O)cc1OCc1ccc(Cl)cc1Cl` [Compound 18]: “−”; for `CCOc1cc(/C=C2\SC(=S)N(CC(=O)O)C2=O)ccc1OCc1ccc(Cl)cc1` [Compound 20]: “−”.
For the compound `COc1cc(/C=C2\SC(=S)N(CC(=O)O)C2=O)ccc1OCc1ccccc1` [Compound 22], the Virulence hla promoter entry was “−”.
The same measure for `CCOc1cc(/C=C2\SC(=S)N(CC(=O)O)C2=O)ccc1OCc1ccc(Cl)c(Cl)c1` [Compound 34]: “+”; for `COCc1ccccc1` [Compound 52]: “−”.
With `CC(C(=O)O)N1C(=O)/C(=C/c2ccc(Cl)cc2)SC1=S` (stereo not shown) [Compound 53], the Virulence hla promoter result is recorded as “+”.
The same measure for `O=C(O)CN1C(=O)/C(=C/c2cccc(OCc3ccccc3F)c2)SC1=S` [Compound 63]: “−”; for `COC(=O)CN1C(=O)C(=Cc2ccc(OCc3ccccc3)cc2)SC1=S` [Compound 69]: “−”.
The result for `O=C(O)CN1C(=O)C(=Cc2ccc(OCc3ccc(Cl)cc3)cc2)SC1=S` [Compound 82] reads “−”.
